B1: CPEB3 Ribozyme (parent)
chain: UAACAGGGGGCCACAGCAGAAGCGUUCACGUCGCAGCCCCUGUCAGAUUCUGGUGAAUCUGCGAAUUCUGCUGUAUAUCUC

The source gives no read counts; variants with many changes may rest on few reads.

The variants in this data set derive from B1. Briefly: self-cleavage, relative activity (ratio to wild type); higher = more cleavage; in vitro, sequencing. In outline:
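Barcoded CPEB3 ribozyme mutants, produced by rounds of error-prone PCR, self-cleaved while being transcribed with T7 RNA polymerase for 5 hours at 37°C and during a subsequent 15 min DNase I step before EDTA was added. Sequencing of template-switched cDNA on Illumina gave cleaved and total reads, and DNA sequencing assigned barcodes to variants. Each variant's relative activity is its cleaved/total read fraction divided by the unmutated ribozyme's fraction, averaged across three batches. A variant needed a minimum of 5 reads.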
Regarding UAACUGGGGGCCAUAGCAGAAGCGUUCACGUCGCAGCCACUGUCAGAUUCUGGUGAAUCUGCGAAUCCUGCUGUAUAUCUC [A5U C14U C39A U67C], the self-cleavage was found to be 0.1. Take UAACUGGGGGCCACAGCAGAAGCGUUAACGUCACAGCCCCUGUCAGAUUCUGGUGAAUCUGCGAAUCCUGCUGUAUAUCUC [A5U C27A G33A U67C]: the self-cleavage turned out to be 0.14. For the variant UAACUGGGGGUCACAGCUGAAGCGUCCACGUCGCAGCCCCAGUCAGAUUCUGGUGAAUCCGCGAAUACUGCUGUAUAUCUC [A5U C11U A18U U26C U41A U60C U67A], the self-cleavage turned out to be 0.05.

For the variant UAACUGGGGGCCACAGCAGAAGAGUUCACGUCGCAGCCCCUGUCAGAUUCUGGUGAAUCUGCGAAUUCUGCUGUAUAUCCC [A5U C23A U80C], the self-cleavage is 0.39. As for UAACUGGGGGCCACAGCAGAAGCGUUCUCGUCGCAGCCCCUGUCAGAUUCUGGUGAAUCUGCGAACUCUGCCGUAUAUCAC [A5U A28U U66C U72C U80A], the figure is 0.57; as for UAACUGGGGGCCACAGCAGAAGCGUUCAUGUCGCAGCCCCUGUCAGAUCCUGGUGAAUCUGCGUAUUCUGCUGUAUAUCUC [A5U C29U U49C A64U], 0.08; as for UAACUGGGGGCUACAGCAGAAGCGUUCACGUCGCAGCCCCUGCCAGAUCCUGGCGAAUCUGCGAAUUCUGCUGUACACCUC [A5U C12U U43C U49C U54C U76C U78C], 0.07.

In the case of UAACUGGGGGCCACAGCAGAAGCGUUCACGUCGCUGCUCCUGUCAGAUUCUGGUGAAUCUGCGAAUUCUGUUGUAUAUCUC [A5U A35U C38U C71U], the self-cleavage amounted to 0.35. With UAACUGGGGGCCACAGCAGAAGCGUUCGCGCCGCAGCCCCUGUCCGAUUCUGGUGAACCUGCGAAUUCCGCUCUAUAUCUC [A5U A28G U31C A45C U58C U69C G73C], the self-cleavage stood at 0.18.

For UAACUGGGGGCGACGGCAGAAGCGUUCACGUCGCAGCCCCUGUCAGAAUCUGGUGAAUCUGCGAAUUCUGCUGUAUAUCUC [A5U C12G A15G U48A], the self-cleavage stood at 0.42. For the variant UAACUGGGGGCCACAGCAGAAGCGUUCUCGUCGCAGCCCCUGCCAGAUUCUGGGGAAUCUGCGAAUUCUGCUGUAUAUCUC [A5U A28U U43C U54G], the self-cleavage came to 0.37. For UAACUGGGGGCCACAGCAGAAGCGUUCACGUCGCAGCCCCUGUCAGGUACUGGUGAAUCUGCGAAUUCUGCUGUAUAUCUC [A5U A47G U49A], the self-cleavage was 0.47. As to UAACUGGGGGCCACAGCAGAUGCGUUCACGUCGCUGCCCCUGUCAGAUUCUGGUGAAUCUGUGAUUUCUGCUGUAUAUCUC [A5U A21U A35U C62U A65U], the self-cleavage is 0.13. Regarding UAACUGGGGGCCACAGCAGAAGCGUUCGCGUCGCAGCCCCUGUCAGUUUCUGGUGAAUCUGCGAAUCGUGCUGUAUAUCUC [A5U A28G A47U U67C C68G], the self-cleavage was found to be 0.15.

As to UAACUGGGGGCCACAGCAGAAGCGUUCACGUCGCGGCCCCUGUCAGAUUCUGGUGGUUCUGCGAAUUCUGCUGUAUAUCUC [A5U A35G A56G A57U], the self-cleavage was found to be 1. UAACUGGGGGCCACAGCAGAGGCGUUCACGUCGCAGCCCCUGUCAGGCUCUGGUGAAUCUGCGAAUUCUGCUGUAUAUCCC [A5U A21G A47G U48C U80C]: the self-cleavage was 0.39. Consider UAACUGGGGGCCACAGCAGAGGCGUUCACGUCGCAGCCCCUGUCAGAUUCUGGUGAAUCUGCGAAUCCUGCUGUACAUCUC [A5U A21G U67C U76C], for which the self-cleavage turned out to be 0.15. Consider UAACUGGGGGUCACAGCAGAAGCGUUCACGUCGCAGCCCCUGUCAGAUUCUGGUGAAUCAGCGAAUUCUGCUGUAUAUCUC [A5U C11U U60A], for which the self-cleavage worked out at 0.42. As for UAACUGGGGGCCACAGCAGAAGCGUUCACGUCGCAGCCCCUGUCGGAUCCUGGUGAAUCAGCGGAUUCUGCUGUAUAUCUC [A5U A45G U49C U60A A64G], the self-cleavage came to 0.41. Take UAACUGGGGGCCACAGCAGAAGCGUUCUCGUCGCAGCCCCCGUCAGAUUCUGGUGAACCUGCGAACUCUGCUGUAUAUCUC [A5U A28U U41C U58C U66C]: the self-cleavage is 0.24. In the case of UAACUGGGGGCCACAGCAGAAGCGUUCACGUCGCAGCCCCUGUCAGAUUCUGGUGAAUCUGCGAAUUCUGCUGUAUGUCAC [A5U A77G U80A], the self-cleavage came out at 1.19. In the case of UAACUGGGGGCCACAGCAGAAGCGUUCGCGUCGCGGCCCCUGUGAGAUUCUGGUGAAUCUGCGAAUUCUGCUGUAUAUCUC [A5U A28G A35G C44G], the self-cleavage came out at 0.56.

Consider UAACUGGGGGGCACAGCAGAAGCGUUCACGUCGCAGCCCCUGUCAGAUUCUGGUGUAUCUGCGAAUUCUGCUGUAUAUCUC [A5U C11G A56U], for which the self-cleavage turned out to be 0.18. Consider UAACUGGGGGCUACGGCAGAAGCGUUCACGUCGCAGCCCCUGUCAGAUUCUGGUGAAUCUGCGAAUUCUGCCGUAUAUCUC [A5U C12U A15G U72C], for which the self-cleavage came out at 1.16. As for UAACUGGGGGCCACAGCAGAAGCGUUCAGGUCGCUGCCCCUGUCAGAUUCUGGCGAAUCUGCGAAUUCUGCUGUAUAUCUC [A5U C29G A35U U54C], the figure is 0.17; as for UAACUGGGGGCCACAGCAGUAGCGUUCACGUCGCAGCCCCUGUCAGAUUCUGGUGAAUCUGCGAAUUCUGCAGUACAUCCC [A5U A20U U72A U76C U80C], 0.52; as for UAACUGGGGGCCACAGCAGAAGCGUUCACGUCGCAGCCCCUGUCGGACUCUGGUGAAUCUGCGGACUCUGCUGUAUAUCCC [A5U A45G U48C A64G U66C U80C], 0.19. With UAACUGGGGGCCACAGCAGAAGCGUUCACGUCGCAGCCCCUGUCAGAUUCUGGUGAAUCUGCGAUUACUGCUGUAUAUCUC [A5U A65U U67A], the self-cleavage was 0.21. For the variant UAACUGGGGGCCACAGCAGAAGCGUUCACGUCGCAGCCCCUGUCAGAUUCUGGUGAAUCUGCGAUUUCCGCCGUAUAUCUC [A5U A65U U69C U72C], the self-cleavage is 0.24. Take UAACUGGGGGCCACAGCAGAAGCGUUCACGUCGCGGCCCCUGUCAGAUUCUGGUGAAUCUGUGAAUUCUGCUGUAUAUCAC [A5U A35G C62U U80A]: the self-cleavage amounted to 0.21. As for UAACUGGGGGCCACAGCAGAAGGGUUCACGUCGCAGCCCCUGUCGGAUUCUGGUGAAUCUGCGAAUUCUGCUGUAUAUCUC [A5U C23G A45G], the figure is 0.25; as for UAACUGGGGGCCACAGCAGAAGCGUUCACGUCGCAGCCCCUGUCAGAUUCUGGUGAAUCUGCGACUUCCGCAGUAUAUCUC [A5U A65C U69C U72A], 0.15. In the case of UAACUGGGGGCCACAGCAGAAGCGUUCACGUCGCAGCCCCUGUCAGAUUCUGGUGAAUCUGCGAUUUCUGCCGUAUACCUC [A5U A65U U72C U78C], the self-cleavage worked out at 0.22.

Turning to UAACUGGGGGCCACAGCAGAAGCGUUCACGUCGCGGCCCCUGCCAGAUUCUGGUGGAUCUGCGAACUCUGCUGUAUAUCUC [A5U A35G U43C A56G U66C], the self-cleavage amounted to 0.18.

The values above are taken from the RNAGym collection of RNA variant scans (doi:10.1093/nar/gkz1192).
